Measured values reported in the supplement of paper PMC10724272.

Columns and labels:
Assay in all cases: CLSI broth microdilution.
itraconazole = compound: CCC(C)n1ncn(-c2ccc(N3CCN(c4ccc(OCC5COC(Cn6cncn6)(c6ccc(Cl)cc6Cl)O5)cc4)CC3)cc2)c1=O [itraconazole]
micafungin = compound: CCCCCOc1ccc(-c2cc(-c3ccc(C(=O)N[C@H]4C[C@@H](O)[C@@H](O)NC(=O)[C@@H]5[C@@H](O)[C@@H](C)CN5C(=O)[C@H]([C@H](O)CC(N)=O)NC(=O)[C@H]([C@H](O)[C@@H](O)c5ccc(O)c(OS(=O)(=O)O)c5)NC(=O)[C@@H]5C[C@@H](O)CN5C(=O)[C@H]([C@@H](C)O)NC4=O)cc3)no2)cc1 [micafungin]
anidulafungin = compound: CCCCCOc1ccc(-c2ccc(-c3ccc(C(=O)N[C@H]4C[C@@H](O)[C@@H](O)NC(=O)[C@@H]5[C@@H](O)[C@@H](C)CN5C(=O)[C@H]([C@@H](C)O)NC(=O)[C@H]([C@H](O)[C@@H](O)c5ccc(O)cc5)NC(=O)[C@@H]5C[C@@H](O)CN5C(=O)[C@H]([C@@H](C)O)NC4=O)cc3)cc2)cc1 [anidulafungin]
posaconazole = compound: CC[C@@H]([C@H](C)O)n1ncn(-c2ccc(N3CCN(c4ccc(OC[C@@H]5CO[C@@](Cn6cncn6)(c6ccc(F)cc6F)C5)cc4)CC3)cc2)c1=O [posaconazole]
caspofungin = compound: CC[C@H](C)C[C@H](C)CCCCCCCCC(=O)N[C@H]1C[C@@H](O)[C@@H](NCCN)NC(=O)[C@@H]2[C@@H](O)CCN2C(=O)[C@H]([C@H](O)CCN)NC(=O)[C@H]([C@H](O)[C@@H](O)c2ccc(O)cc2)NC(=O)[C@@H]2C[C@@H](O)CN2C(=O)[C@H]([C@@H](C)O)NC1=O [caspofungin]
voriconazole = compound: C[C@@H](c1ncncc1F)[C@](O)(Cn1cncn1)c1ccc(F)cc1F [voriconazole]
amphotericin B = compound: C[C@@H]1[C@H](O)[C@@H](C)/C=C/C=C/C=C/C=C/C=C/C=C/C=C/[C@H](O[C@@H]2O[C@H](C)[C@@H](O)[C@H](N)[C@@H]2O)C[C@@H]2O[C@](O)(C[C@@H](O)C[C@@H](O)[C@H](O)CC[C@@H](O)C[C@@H](O)CC(=O)O[C@H]1C)C[C@H](O)[C@H]2C(=O)O [amphotericin B]
flucytosine = compound: Nc1[nH]c(=O)ncc1F [flucytosine]
fluconazole = compound: OC(Cn1cncn1)(Cn1cncn1)c1ccc(F)cc1F [fluconazole]

Row | Test System | MIC (itraconazole) | MIC (micafungin) | MIC (anidulafungin) | MIC (posaconazole) | MIC (caspofungin) | MIC (voriconazole) | MIC (amphotericin B) | MIC (flucytosine) | MIC (fluconazole)
1 | Candida tropicalis isolate 225 (ERG11 copies: 2, Erg11p: no key change) | 0.12 mg/L [S] | 0.03 mg/L [S] | 0.03 mg/L [S] | 0.12 mg/L [S] | 0.03 mg/L [S] | 0.12 mg/L [S] | 1 mg/L [S] | ≤ 0.06 mg/L [S] | 2 mg/L [S]
2 | Candida tropicalis isolate 226 (ERG11 copies: 2, Erg11p: no key change) | 0.5 mg/L [S] | 0.03 mg/L [S] | ≤ 0.015 mg/L [S] | 0.5 mg/L [R] | 0.06 mg/L [S] | 0.25 µg/mL | 1 mg/L [S] | ≤ 0.06 mg/L [S] | 4 µg/mL
3 | Candida tropicalis isolate 227 (ERG11 copies: 2, Erg11p: no key change) | 0.25 mg/L [S] | 0.06 mg/L [S] | 0.12 mg/L [S] | 0.12 mg/L [S] | 0.06 mg/L [S] | 0.12 mg/L [S] | 1 mg/L [S] | ≤ 0.06 mg/L [S] | 2 mg/L [S]
4 | Candida tropicalis isolate 228 (ERG11 copies: 2, Erg11p: no key change) | 1 mg/L [R] | 0.03 mg/L [S] | ≤ 0.015 mg/L [S] | 2 mg/L [R] | 0.03 mg/L [S] | 0.5 µg/mL | 1 mg/L [S] | ≤ 0.06 mg/L [S] | 16 mg/L [R]
5 | Candida tropicalis isolate 229 (ERG11 copies: 2, Erg11p: no key change) | 0.5 mg/L [S] | 0.03 mg/L [S] | 0.12 mg/L [S] | 0.25 mg/L [S] | 0.06 mg/L [S] | 0.12 mg/L [S] | 0.5 mg/L [S] | ≤ 0.06 mg/L [S] | 2 mg/L [S]
6 | Candida tropicalis isolate 230 (ERG11 copies: 2, Erg11p: no key change) | 0.06 mg/L [S] | 0.03 mg/L [S] | ≤ 0.015 mg/L [S] | 0.06 mg/L [S] | 0.015 mg/L [S] | 0.03 mg/L [S] | 0.5 mg/L [S] | ≤ 0.06 mg/L [S] | 0.5 mg/L [S]
7 | Candida tropicalis isolate 231 (ERG11 copies: 2, Erg11p: no key change) | 0.5 mg/L [S] | 0.03 mg/L [S] | 0.12 mg/L [S] | 0.5 mg/L [R] | 0.25 mg/L [S] | 0.5 µg/mL | 1 mg/L [S] | ≤ 0.06 mg/L [S] | 256 mg/L [R]
8 | Candida tropicalis isolate 232 (ERG11 copies: 2, Erg11p: no key change) | 0.25 mg/L [S] | 0.03 mg/L [S] | 0.06 mg/L [S] | 0.25 mg/L [S] | 0.03 mg/L [S] | 0.5 µg/mL | 1 mg/L [S] | 0.25 mg/L [S] | 8 mg/L [R]
9 | Candida tropicalis isolate 233 (ERG11 copies: 10, Erg11p: Y132F, S154F (heterozygous)) | 1 mg/L [R] | 0.06 mg/L [S] | 0.25 mg/L [S] | 1 mg/L [R] | 0.25 mg/L [S] | ≥ 8 mg/L [R] | 1 mg/L [S] | ≤ 0.06 mg/L [S] | 512 mg/L [R]
10 | Candida tropicalis isolate 234 (ERG11 copies: 2, Erg11p: no key change) | 0.25 mg/L [S] | 0.03 mg/L [S] | ≤ 0.015 mg/L [S] | 0.25 mg/L [S] | 0.03 mg/L [S] | 0.12 mg/L [S] | 1 mg/L [S] | ≤ 0.06 mg/L [S] | 1 mg/L [S]
11 | Candida tropicalis isolate 235 (ERG11 copies: 2, Erg11p: no key change) | 0.12 mg/L [S] | 0.03 mg/L [S] | 0.06 mg/L [S] | 0.12 mg/L [S] | 0.03 mg/L [S] | 0.06 mg/L [S] | 1 mg/L [S] | ≤ 0.06 mg/L [S] | 1 mg/L [S]
12 | Candida tropicalis isolate 236 (ERG11 copies: 2, Erg11p: no key change) | 0.25 mg/L [S] | 0.03 mg/L [S] | 0.06 mg/L [S] | 0.12 mg/L [S] | 0.03 mg/L [S] | 0.12 mg/L [S] | 1 mg/L [S] | ≤ 0.06 mg/L [S] | 2 mg/L [S]
13 | Candida tropicalis isolate 237 (ERG11 copies: 7, Erg11p: Y132F, S154F (heterozygous)) | 1 mg/L [R] | 0.06 mg/L [S] | 0.06 mg/L [S] | 1 mg/L [R] | 0.03 mg/L [S] | ≥ 8 mg/L [R] | 1 mg/L [S] | ≤ 0.06 mg/L [S] | 512 mg/L [R]
14 | Candida tropicalis isolate 238 (ERG11 copies: 2, Erg11p: Y257H (homozygous)) | 0.25 mg/L [S] | 0.015 mg/L [S] | ≤ 0.015 mg/L [S] | 0.5 mg/L [R] | 0.015 mg/L [S] | 0.5 µg/mL | 1 mg/L [S] | ≤ 0.06 mg/L [S] | 8 mg/L [R]
15 | Candida tropicalis isolate 239 (ERG11 copies: 2, Erg11p: no key change) | 0.12 mg/L [S] | 0.06 mg/L [S] | 0.25 mg/L [S] | 0.12 mg/L [S] | 0.25 mg/L [S] | 0.06 mg/L [S] | 1 mg/L [S] | 0.12 mg/L [S] | 1 mg/L [S]
16 | Candida tropicalis isolate 240 (ERG11 copies: 2, Erg11p: no key change) | 0.25 mg/L [S] | 0.03 mg/L [S] | ≤ 0.015 mg/L [S] | 0.25 mg/L [S] | 0.03 mg/L [S] | 0.12 mg/L [S] | 0.5 mg/L [S] | ≤ 0.06 mg/L [S] | 2 mg/L [S]
17 | Candida tropicalis isolate 241 (ERG11 copies: 2, Erg11p: no key change) | 0.015 mg/L [S] | 0.015 mg/L [S] | ≤ 0.015 mg/L [S] | 0.015 mg/L [S] | 0.015 mg/L [S] | ≤ 0.008 mg/L [S] | 1 mg/L [S] | ≤ 0.06 mg/L [S] | 0.25 mg/L [S]
18 | Candida tropicalis isolate 242 (ERG11 copies: 2, Erg11p: no key change) | 0.12 mg/L [S] | 0.03 mg/L [S] | 0.03 mg/L [S] | 0.12 mg/L [S] | 0.015 mg/L [S] | 0.06 mg/L [S] | 1 mg/L [S] | ≤ 0.06 mg/L [S] | 1 mg/L [S]

MIC of invasive clinical C. tropicalis isolates, CLSI broth microdilution (fluconazole 0.12-256 mg/L, up to 1,024 for the azole-resistant cluster and its neighbour group; other ranges not stated); higher = less susceptible. Call: susceptible or wild type [S] / resistant or non-wild type [R] by CLSI breakpoints or cut-offs; intermediate and dose-dependent carry no call. '<=' and '>=' at the end values are inferred; the source marks only some of them. Isolates are numbered anew.
